Laboratory results published in PubChem BioAssay AID624202 (National Center for Advancing Translational Sciences (NCATS), 2012).
Among all 380,000 compounds or so, about 4,000 (1.1%) were called active. This list was built around the results that the source calls inconclusive (neither active nor inactive); the mix of calls is not that of the screen. Calls come from the whole dose curve; as a rule, active = well fitted activation curve with a large enough effect; inconclusive = small, poorly fitted or top-dose-only effect; inactive = no such curve, though single readings can be large or run the other way. A potency beside an inconclusive call is a rough fit, not a confirmed value.

Experiment: qHTS Assay to Identify Small Molecule Activators of BRCA1 Expression; note: nearly all actives have a fitted effect of over 80% in size
Settings: MCF7-BRCA1-FFLuc reporter, luminescence, 48 h; activation: at 46.1 µM (top of the series), scaled: vehicle 0%, 10 µM genistein 100% unless noted
Summary of the method: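 Activators of BRCA1 expression were detected as increased firefly luciferase luminescence in engineered MCF7 cells after 48 h compound incubation. Signals were scaled to genistein 10 microM as full activation.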
Potency is the fitted concentration of half-maximal effect; tags give direction and shape of the fitted curve.

Structure (SMILES) | Potency | activation
CCOC(=O)c1cccc(NC(=O)c2cc(S(=O)(=O)N3CCCCCC3)cn2C)c1 | inactive | 
COC(=O)[C@@]1(Cc2ccccc2)[C@@H]2C(=CC(=O)[C@H]2CC(=O)C(=O)N(C)C)CN1C(=O)c1ccccc1 | inactive | 
CC1(C(=O)NCc2ccc(C(F)(F)F)cc2)CCN1Cc1ccccc1OC(F)F (stereo unspecified) | inactive | 
CN(C)C(CNC(=O)c1cc(-c2ccco2)nc2ccccc12)c1ccccc1 (stereo unspecified) | inactive | 
O=S1(=O)CC(N2CCCC2)CN1Cc1cn(Cc2cccc(C(F)(F)F)c2)nn1 (stereo unspecified) | inactive | 
O=C(NCCC1=CCCCC1)c1cc(S(=O)(=O)N2CCOCC2)ccc1Cl | inactive | 
O=C(CN1CCCC1)Nc1ccc2c(c1)CCC2 | inconclusive: 15.8 µM [activator, partial curve, poor fit] | 
O=C(Nc1ccc(Cc2ccncc2)cc1)c1ccc(Br)o1 | inconclusive: 31.6 µM [activator, single point] | 
CC(C)CCN1CC(O)=C(c2nc3ccccc3[nH]2)C1=N | inactive | 
CC(C)[C@@H](C(=O)N1CCCC1)N1C(=O)N2CCc3c([nH]c4ccccc34)[C@@]2(C)C1=O | inactive | 
Nc1[nH]ncc1N=Nc1ccc(Cl)cc1 | active: 11.2 µM | 
Cc1ccc(NC(=O)[C@@H]2CCC(=O)N2C2OC(=O)c3ccccc32)cc1Cl (stereo partly specified) |  | inconclusive: 143% [activator]
CCN(CC)CCCNC(=O)c1ccc2nc(N3CCCCC3)sc2c1 | inconclusive: 0.316 µM [activator, full curve, poor fit] | 
COC(=O)c1[nH]c2ccc(Br)cc2c1NC(=O)CN1CCCc2ccccc21 | inactive | 
CN(C)CCN=c1cc(-c2ccccc2)oc2ccc(Cl)cc12 | inconclusive: 2.82 µM [activator, full curve, poor fit] | 
CN(C)CCCNc1ncnc2c1cnn2-c1ccccc1 | inconclusive: 2.51 µM [activator, full curve, poor fit] | 
Cc1c(/C=C/C(=O)c2cccs2)cnn1C | inconclusive: 35.5 µM [activator, single point] | 
Cc1ccc2nc(SCC(=O)N3CCOCC3)[nH]c2c1 | inconclusive: 1.58 µM [activator, partial curve, poor fit] | 
Nc1ccncc1N |  | inconclusive: -75.1% [activator]
COc1cc(/C=N/Nc2ccccc2[N+](=O)[O-])ccc1OC(=O)c1ccccc1F | inconclusive: 2.82 µM [activator, full curve, poor fit] | 
COc1ccc(N=Cc2nc(-c3ccccc3)oc2OC(=O)c2ccccc2)cc1 | active: 6.31 µM | 
O=C(CCCN1CCOCC1)c1ccc2c(c1)OCCO2 | inconclusive: 1.26 µM [activator, partial curve, poor fit] | 
CC(C)n1cc(CN2CCC(Oc3ccc(C(=O)N4CCCC4)cc3)CC2)cn1 | inactive | 
O=C1CCC/C1=C/Nc1ccc(Cl)cc1 | inconclusive: 28.2 µM [activator, single point] | 
COc1ccc(NC(=O)Cc2ccccc2)cc1 | inconclusive: 11.2 µM [activator, partial curve, poor fit] | 
COc1cccc(-c2cc(C(=O)NCc3ccco3)no2)c1 | active: 7.94 µM | 

Structure (SMILES) | Potency | activation
CCOC(=O)c1sc(N)c(C(=O)OCC)c1C | inactive | 
O=C(Nc1ccccc1)c1ccc(-n2cnnn2)cc1 | inconclusive: 35.5 µM [activator, single point] | 
Cc1nc2ccc3nc(NC(=O)c4ccco4)sc3c2s1 | inconclusive: 7.08 µM [activator, partial curve, poor fit] | 
c1ccc2cc(OCc3nc4ccccc4[nH]3)ccc2c1 | inconclusive: 2.24 µM [activator, full curve, poor fit] | 
COc1cccc2c1nc(C)c1cc(C)oc12 | inconclusive: 12.6 µM [activator, single point] | 
COc1cccc(C2=CC(=O)C[C@H](c3ccc(F)cc3)C2)c1OC | inconclusive: 35.5 µM [activator, single point] | 
O=C(Nc1ccc2c(c1)OCO2)c1cc(Cl)ccn1 | inconclusive: 3.16 µM [activator, partial curve, poor fit] | 
Cc1ccc(O)c(NC(=O)c2noc3c2CCCCC3)c1 | inconclusive: 11.2 µM [activator, partial curve, poor fit] | 
COc1ccccc1C(=O)OCCCN=C1NS(=O)(=O)c2ccccc21 | inactive | 
O=C(Nc1ccc2c(c1)OCO2)c1n[nH]c(=O)c2ccccc12 | inconclusive: 11.2 µM [activator, partial curve, poor fit] | 
Cc1cccc(-c2nc(C#N)c(N3CCCCC3)o2)c1 | inconclusive: 8.91 µM [activator, partial curve, poor fit] | 
Cc1csc(NC(=O)c2ccccc2)n1 | active: 3.16 µM | 
CCCn1cnc2cc(NCc3ccccn3)ccc21 | active: 3.98 µM | 
O=S(=O)(Nc1cccc(-c2ccc(N3CCCCCC3)nn2)c1)c1ccccc1F | active: 12.6 µM | 
Cc1ccc(C(c2ccc(C)c(C)c2)C(O)C2OC(=O)C(O)C2O)cc1C (stereo unspecified) | inactive | 
O=C1C(Cl)=C(NCCc2ccccc2)C(=O)N1CCc1ccccc1 | active: 7.94 µM | 
Cc1ccc(CSc2ccc(-c3cccs3)nn2)cc1 | inconclusive: 6.31 µM [activator, partial curve, poor fit] | 
C=CCNc1nnc(SC2CC(=O)N(c3ccc(OC)cc3)C2=O)s1 (stereo unspecified) | inactive | 
CN(C)c1ccnc(SCc2ccccc2Cl)c1C#N |  | inconclusive: 86.1% [activator]
O=c1oc2ccccc2cc1-c1ccccc1 | inconclusive: 15.8 µM [activator, single point] | 
COc1ccc2nc(NC(=O)CSc3nnnn3C)sc2c1 | inconclusive: 11.2 µM [activator, partial curve, poor fit] | 
CC(=O)c1cccc(NC(=O)c2cc(-c3ccc(C)cc3)on2)c1 | inconclusive: 17.8 µM [activator, partial curve, poor fit] | 
Cc1cc(C(=O)CSc2n[nH]c(N)n2)c(C)n1-c1cccc(F)c1 | active: 12.6 µM | 
Cc1ccc(-c2nc3ccccc3[nH]2)cc1NC(=S)NC(=O)c1ccccc1Br | inactive | 
CNC(=O)c1c(Cl)cnn1-c1ccc(C)cc1 | active: 6.31 µM | 
Cc1ccc(NC(=O)Nc2cccs2)nc1 | inconclusive: 10 µM [activator, partial curve, poor fit] | 

Structure (SMILES) | Potency | activation
CS(=O)(=O)N1CCC(C(=O)Nc2ccc(C(F)(F)F)cc2)CC1 | inconclusive: 2.51 µM [activator, partial curve, poor fit] | 
COC(=O)N/N=C/c1ccccc1 | inconclusive: 35.5 µM [activator, single point] | 
Cc1ccnc(N/N=C/c2ccccc2)n1 | inconclusive: 1.58 µM [activator, partial curve, poor fit] | 
O=C(NC1CCCCC1)c1cc(-c2ccco2)on1 | inconclusive: 1.26 µM [activator, full curve, poor fit] | 
O=C(COC(=O)CCc1ccc(S(=O)(=O)N2CCOCC2)cc1)NC1CCCC1 | inconclusive: 31.6 µM [activator, single point] | 
CCNc1nc(OCC)nc(N2CCC(Cc3ccccc3)CC2)n1 | inactive | 
Cc1cc(C(=O)CS(=O)(=O)c2ccc(F)cc2)cc(C)c1O | inconclusive: 12.6 µM [activator, partial curve, poor fit] | 
S=c1[nH]nc(Nc2ccccc2Cl)s1 | inactive | 
CCc1nc2c(OCCC3CCCCC3)cccn2c1N(C)C(=O)c1ccc(C)cc1 | inactive | 
O=C(NCCc1cccs1)c1ccc(Cl)c(Cl)c1 | active: 3.98 µM | 
CS(=O)(=O)c1ccccc1C(=O)Nc1ccc(-c2nc3ccccc3[nH]2)cc1 | inconclusive: 11.2 µM [activator, partial curve, poor fit] | 
CCOC(=O)Cc1csc(NC(=O)CC)n1 | inactive | 
O=C(NNC(=S)Nc1ccccc1)Nc1ccccc1 | inconclusive: 4.47 µM [activator, partial curve, poor fit] | 
COc1ccc(C2C=C(c3ccc(C)cc3)Nc3ncnn32)cc1 (stereo unspecified) | inconclusive: 0.562 µM [activator, full curve, poor fit] | 
CCN(CC)C(=O)C(=O)Nc1ccc(F)c(Cl)c1 | active: 8.91 µM | 
COc1ccc2oc(C(=O)N(C)CCOc3ccccc3)c(C)c2c1 | active: 11.2 µM | 
COc1cccc(CNC(=O)c2n[nH]c3ccccc23)c1 | active: 11.2 µM | 
COC(=O)c1cnc(SCC(=O)c2ccccc2)n1C | inconclusive: 1.26 µM [activator, full curve, poor fit] | 
COc1ccc(S(=O)(=O)N2CCN(C(=O)NCc3ccccc3)CC2)cc1 | inactive | 
O=C(Nc1nc2ccccc2s1)c1ccc2sc([C@H]3C[C@H](O)[C@@H](CO)O3)nc2c1 | inconclusive: 1.26 µM [activator, full curve, poor fit] | 
COc1cccc(CNc2nc3ccccc3n2C)c1O | inconclusive: 1.26 µM [activator, full curve, poor fit] | 
CN(C)c1ccc(-c2nc(-c3ccncc3)no2)cc1[N+](=O)[O-] | inconclusive: 2.82 µM [activator, full curve, poor fit] | 
Cc1ccc(NC(=O)COc2ccccc2C=O)cc1Cl | inconclusive: 17.8 µM [activator, partial curve, poor fit] | 
COc1cc2ccc(-c3ccc4ccccc4n3)cc2cc1OC | inconclusive: 10 µM [activator, partial curve, poor fit] | 
